# The campaign covered roughly 110,000 compounds. About 230 (0.21%) showed an effect of 50% or more. The list shows a part of the results.
# Molecular target: DPAP1 (Plasmodium falciparum, UniProt Q8IIJ9)
# Test: primary screen, percent inhibition; read by cleavage of a fluorogenic dipeptide substrate; higher = more effect of the substance
# Design: species or system P. falciparum D10 trophozoite lysates; single well
# 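Note: 30 min substrate incubation versus DMSO and 10 µM JCP410 controls.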
# Chain of DPAP1 (Q8IIJ9 whole entry, looked up): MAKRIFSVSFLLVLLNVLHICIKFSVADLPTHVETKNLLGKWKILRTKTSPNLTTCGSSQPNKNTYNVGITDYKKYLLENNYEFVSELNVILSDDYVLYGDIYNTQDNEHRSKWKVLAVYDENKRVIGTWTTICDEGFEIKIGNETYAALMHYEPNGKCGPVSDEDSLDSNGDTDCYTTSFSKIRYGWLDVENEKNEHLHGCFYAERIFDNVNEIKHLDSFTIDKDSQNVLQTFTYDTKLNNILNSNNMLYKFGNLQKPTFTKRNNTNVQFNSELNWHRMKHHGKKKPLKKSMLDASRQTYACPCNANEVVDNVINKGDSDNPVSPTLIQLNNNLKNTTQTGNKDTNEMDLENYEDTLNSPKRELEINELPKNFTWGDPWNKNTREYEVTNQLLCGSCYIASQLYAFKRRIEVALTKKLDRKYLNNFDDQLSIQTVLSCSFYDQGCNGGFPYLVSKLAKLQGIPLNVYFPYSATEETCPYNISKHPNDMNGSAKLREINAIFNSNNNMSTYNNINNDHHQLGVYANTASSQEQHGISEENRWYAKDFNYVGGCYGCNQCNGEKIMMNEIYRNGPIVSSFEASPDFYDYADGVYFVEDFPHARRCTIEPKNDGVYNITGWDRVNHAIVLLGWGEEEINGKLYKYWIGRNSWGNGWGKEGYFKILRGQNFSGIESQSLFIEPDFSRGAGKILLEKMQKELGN
row,Structure (SMILES),% Inhibition @ 10 uM [%]
1,O=C(CCn1c(=O)[nH]c2ccsc2c1=O)N1CCN(c2ncccn2)CC1,-4.06
2,CSc1ccc(CCNC(=O)Cc2c(C)nc3c(-c4ccccc4)c(C)nn3c2C)cc1,2.93
3,COc1ccccc1CNS(=O)(=O)c1ccc2[nH]c3c(c2c1)CCCC3,1.46
4,CCCOc1ccc(C2C(C#N)=C(N)OC3=C2C(=O)CC(C)(C)C3)cc1OC (centres unmarked),-0.759
5,Cc1cc(OCc2ccc(F)cc2)nc(-c2ccccc2O)n1,-0.239
6,Cc1cccc(NS(=O)(=O)c2ccc([N+](=O)[O-])cc2)c1C,-3.27
7,O=C(Cc1ccc(F)cc1F)Nc1ccc(Cl)cc1Cl,1.74
8,O=C(C1CCCN(S(=O)(=O)c2cccnc2)C1)N1CCn2c1nc1ccccc12 (centres unmarked),-1.03
9,CC(C)(C)c1cc(N/C(=N\S(=O)(=O)c2ccccc2)c2ccccc2)no1,2.31
10,CC1=[N+](CC(=O)NC(C)(C)C)CCc2ccccc21,-4.14
11,CC(C)NC(=O)c1ccccc1-c1nc2ccccc2[nH]1,2.7
12,CCc1nc2c(sc3nc(C)cc(COC)c32)c(=O)n1CCOC12CC3CC(CC(C3)C1)C2,2.62
13,Cc1ccc(-n2nc3c(=O)n(CCCC(=O)N4CCN(Cc5ccccc5)CC4)nc(C)c3c2C)cc1,-4.57
14,C=CCOc1ccc(CNC(C)(C)CO)cc1,-5.34
15,O=C(c1ccc(CS(=O)c2cccc(Cl)c2)o1)N1CCN(C2CCCCC2)CC1 (centres unmarked),6.15
16,FC(F)(F)c1ccc(CN2CCN(c3ccccn3)CC2)cc1,-0.294
17,Cc1cc(C)c(C)c(S(=O)(=O)NCC(=O)N2CCN(c3ccccc3)CC2)c1C,-2.85
18,OC1CCN(Cc2cc(Br)cs2)CC1,1.48
19,O=C(c1ccccc1)N1CCC(c2nc(O)c3nnn(Cc4ccco4)c3n2)CC1,-2.28
20,O=C(NC(=O)c1ccc2ccccc2c1)Nc1cccc(Cl)c1,7.92
21,Cc1nn(C)c2c1c(C(F)(F)F)cc(=O)n2CC(=O)NC(C)c1ccccc1 (centres unmarked),2.31
22,CC1=C(c2nc(-c3ccc(C)cc3)no2)C(c2ccc(F)cc2)NC(S)=N1 (centres unmarked),1.68
23,COCCNC(=O)C1CCN(c2nn3cc(-c4ccc(F)cc4)nc3s2)CC1,3.12
24,CCOc1ccccc1CNC(=O)Cn1nc(C)n2cccc2c1=O,-5.44
25,COc1ccccc1C(=O)Nc1ccc(Br)c(C(F)(F)F)c1,-6.18

row,Structure (SMILES),% Inhibition @ 10 uM [%]
1,CCN(CC)S(=O)(=O)N1CCCC(C(=O)NCc2ccccc2)C1 (centres unmarked),-0.519
2,CC(C)c1ccc(OCC(=O)O/N=C(\N)c2ccncc2)c(Br)c1,3.87
3,COc1cccc(C2C3=C(O)CCCC3=NC(C)=C2C(=O)Nc2nc3ccccc3s2)c1 (centres unmarked),-2.68
4,O=C(CC1CCCCC1)NCc1nc(-c2ccccc2)no1,-2.99
5,COc1ccc(Br)cc1CNC(=O)COCc1cc(-c2cccs2)on1,3.37
6,COc1ccc(C(=O)/C=C/c2cccc(Cl)c2Cl)c(OC)c1,-4.08
7,Cc1ccccc1N1C(=O)/C(=C/c2c[nH]c3ccccc23)C(=O)NC1=S,7.56
8,CCOC(=O)c1cnc2nc(C(F)(F)F)nn2c1O,-0.591
9,O=C(O)c1c2c(nc3ccc(S(=O)(=O)N4CCC(C(=O)NCc5ccco5)CC4)cc13)CCCC2,0.291
10,CCCc1c(C)nc2ccc(C(=O)O)cc2c1S,1.8
11,CCOC(=O)c1c(C)n(C)c2ccc3c(c12)CN(Cc1ccccc1)CO3,0.146
12,CCC(C)[C@H](NC(=O)OCc1ccccc1)C(=O)N[C@@H](CCc1ccccc1)C(O)CNS(=O)(=O)c1ccc2oc3ccccc3c2c1 (some centres unmarked),-7.58
13,CCOC(=O)c1c(NC(=O)/C=C/c2ccc(OC)cc2)sc2c1CCCC2,-0.712
14,Cc1cc(NC(=O)NC23CC4CC(CC(C4)C2)C3)c2ccccc2n1,-1.96
15,CCN(CC)CCN(C(=O)COc1ccccc1)c1nc2ccc(Br)cc2s1,6.99
16,CCN1CCN(C(=O)c2cc(-c3ccc(Br)cc3)nc3ccccc23)CC1,-0.473
17,Clc1ccc(-c2noc3ncnc(NCc4ccco4)c23)cc1,-11.6
18,COc1cc(NC(=O)CS(=O)(=O)Cc2ccccc2)c(OC)cc1Cl,5.18
19,CCOC(=O)N1CCC(N2CCc3cc(OC)c(OC)cc3C2c2cccc(Cl)c2)CC1 (centres unmarked),2.22
20,CC1(C)CC(NC(=O)N2c3ccccc3CCc3ccccc32)CC(C)(C)N1,-2.07
21,C=CCOc1ccc2ccccc2c1CNc1nc[nH]n1,0.343
22,Nc1ccc(Oc2ccc(Cl)c3ccccc23)c(Cl)c1,-2.15
23,CC(=O)NCCNC(=O)C1CCC(CNc2nc(S)nc3ccccc23)CC1 (centres unmarked),6.2
24,Cc1ccc(Oc2cccc([N+](=O)[O-])c2)cc1C,2.94
25,CN(C1CCCCC1)S(=O)(=O)c1ccc(C(=O)Nc2nc(-c3ccccn3)cs2)cc1,-1.4

row,Structure (SMILES),% Inhibition @ 10 uM [%]
1,Cc1ccccc1Oc1ccc(S(=O)(=O)NCc2ccccn2)cc1,-11.5
2,COc1ccccc1/C=C/c1nc(C#N)c(N2CCC(C(N)=O)CC2)o1,4.13
3,COC(=O)c1ccc(NC(=O)c2cc(Cl)ccc2Cl)cc1[N+](=O)[O-],2.55
4,Cn1c(=O)c2c(nc(SCc3nn[nH]n3)n2Cc2ccccc2)n(C)c1=O,-1.92
5,COc1cc(/C=C2/SC(=O)N(CC(=O)N3CCN(c4ccccc4)CC3)C2=O)ccc1OC(C)C,-1.89
6,COc1cc(/C=C2N=C(/C=C/c3ccc(C)cc3)OC/2=O)cc(OC)c1OC,-1.12
7,COc1cccc(C(O)Cc2ccccc2)c1 (centres unmarked),2.01
8,CCCN1CCC(N(CCc2ccccc2)Cc2ccccc2)CC1,-1.21
9,O=CN1CCN(Cc2cccc(Cl)c2)CC1,2.7
10,Sc1nnc(CN2CCSCC2)n1-c1cccc(Cl)c1,3.61
11,O=C(c1cc2c(=O)oc3ccccc3c2s1)N1CCN(c2ccccn2)CC1,3.49
12,CCSCCOC(=O)C1=C(C)N(C)C(=O)NC1c1cc2c(cc1Br)OCO2 (centres unmarked),4.1
13,Cn1c2c(c(=O)n(C)c1=O)CN(Cc1cccnc1)CN2,-1.52
14,CCOC(=O)c1cc2c(=O)n3ccccc3nc2n(CC(C)C)/c1=N/C(C)=O,0.457
15,CC(C)N(Cc1nc(-c2ccc(Cl)cc2)no1)C(=O)CCCN1C(=O)c2ccccc2C1=O,-1.24
16,O=C(O)Cn1cc(C(=O)c2ccco2)c2ccccc21,-8.95
17,C=CCSc1nc(O)c2c(n1)NC(=O)CC2c1cccc(O)c1 (centres unmarked),0.596
18,Cc1ccc(C)c2nc(O)c(CCNS(=O)(=O)c3ccc(Br)cc3)cc12,-4.16
19,Cc1cc(C)n(-c2nncn2/N=C/c2ccc(Cl)cc2Cl)n1,-1.24
20,O=[N+]([O-])c1ccc(OCCCCN2CCCCC2)cc1,3
21,Cc1ccc2c(=O)cc(C(=O)NCc3ccccc3)oc2c1C,-1.47
22,CCC1=C(c2ccc(C)cc2)S(=O)(=O)N=C1N1CCC(C(=O)N2CCCCCC2)CC1,-2.66
23,Cc1ccc(NC(=O)C(c2ccccc2)N2Cc3ccccc3C2=O)nc1 (centres unmarked),1.13
24,Cc1ccc(-n2c(SCC(=O)NCC3CCCO3)nc3nnc(C)c-3c2N)cc1Cl (centres unmarked),-2.17
25,CCOC(=O)c1cnc(SC)nc1N,1.22

row,Structure (SMILES),% Inhibition @ 10 uM [%]
1,Cc1cc(C)cc(NC(=O)c2ccc([N+](=O)[O-])cc2)c1,1.83
2,Cc1cc(C(=O)NC(C)CCc2ccccc2)n(-c2ccccc2)n1 (centres unmarked),2.35
3,COc1cc(/C=C(\C#N)c2nc(O)c3ccccc3n2)cc(OC)c1OC,-1.1
4,CCOC(=O)c1ccc(NC(=O)COc2ccccc2)cc1,-5.28
5,O=C1NC(=O)C(=Cc2cn(CC(=O)N3CCOCC3)c3ccccc23)C(=O)N1,-5.01
6,CCC(CC)C(=O)Nc1ccc(C)c(O)c1,4.31
7,Cc1ccc(Cl)cc1-n1ncc2c(N(CCO)Cc3ccccc3)ncnc21,-1.27
8,O=C(O)C(c1ccc(F)cc1)N1Cc2ccccc2C1=O (centres unmarked),2.39
9,Cc1cccc(-n2c(SCc3cc(=O)n4c(C)cccc4n3)nc3nncc-3c2O)c1,-3.94
10,N#CC1=C(N)Oc2[nH]nc(-c3ccccc3)c2C1c1ccc(Br)cc1 (centres unmarked),0.121
11,CCOC(=O)N1CCN(C(=O)C2CCCN(C(=O)c3cc4sccc4n3C)C2)CC1 (centres unmarked),-6.24
12,CCN(CC)Cc1c(O)ccc2occ(C(=O)c3ccccc3)c12,3.82
13,CCN1CN(Cc2ccccc2)CNC1=S,-6.87
14,COc1ccc(C(=O)CCC(=O)NCCSCc2ccccc2)cc1,0.238
15,O=C(Nc1ccc(-c2ccccc2)cc1)C1CC1c1ccccc1 (centres unmarked),0.878
16,O=C(O)c1cn(-c2ccc(F)cc2)c2cc(Cl)c(F)cc2c1=O,4.03
17,CC(CN(C)C)C(=O)c1ccccc1 (centres unmarked),-2.77
18,CN(C)c1ccc(NC(=O)c2ccc(C(C)(C)C)cc2)cc1,0.205
19,O=C(Nc1ccccc1F)c1cc(-c2ccco2)nc2ccccc12,8
20,O=C(NC(Cc1c(F)cccc1F)C(=O)Nc1nc2ccccc2[nH]1)c1ccc(-c2ccccc2Cl)cc1 (centres unmarked),-3.48
21,CC(C)NC(=O)c1nnc(Cc2c(F)cccc2Cl)o1,2.5
22,Cc1ccc(CNC(=O)CCCn2nc(C)c3sc4ccccc4c3c2=O)cc1,-1.49
23,CC(C)C(NS(=O)(=O)c1cccc2nsnc12)C(=O)NCCC1=CCCCC1 (centres unmarked),2.93

# — paper PMC6919601, “Identification of Plasmodium dipeptidyl aminopeptidase allosteric inhibitors by high throughput screening” (PLoS ONE, 2019)
